ChEMBL document CHEMBL4888484, “Replenishing the malaria drug discovery pipeline: Screening and hit evaluation of the MMV Hit Generation Library 1 (HGL1) against asexual blood stage Plasmodium falciparum ,using a nano luciferase reporter read-out” (2022)
Screen size: about 150,000 compounds; about 540 (0.36%) showed an effect of 50% or more. The list shows a part of the results.

These molecules were tested on Plasmodium falciparum (assay: Primary screen in NF54 nanoGlo assay, in single point, at 2uM, 72h; a lower Z score goes with more inhibition). Settings: timepoint 72 hour.
Format: functional, Erythrocyte

Row | Structure (SMILES) | % Inhibition | Z score
1 | CCn1ncc(CNC(=O)NC[C@H]2CS(=O)(=O)c3ccccc32)n1 | -11% | 2.04
2 | O=C(Nc1cccc2c1CCCC2)c1ccc2c(c1)OCO2 | -11% | 1.42
3 | Cc1cccc(NCC2CC(O)CN2Cc2ccccc2)n1 (stereo not drawn) | 14% | -2.07
4 | Cc1cnc(C)c(N2C[C@@H]3OC(=O)N(Cc4ccccn4)[C@@H]3C2)n1 | -2% | 0.35
5 | O=C(NCc1cnccc1C(F)(F)F)c1cncc(N2CCOCC2)c1 | -10% | 1.61
6 | Cc1cc(-c2ccc(C(C)C)cc2)n(-c2ccccn2)n1 | -16% | 2.17
7 | O=c1c2c(-c3ccc(Cl)cc3)noc2ncn1Cc1ccccc1F | -1% | 0.12
8 | CCC(CC)c1nnc(NC(=O)[C@@H]2COc3ccccc3O2)s1 | -7% | 1.06
9 | COc1cc2c(cc1OC)CN(C(=O)C[C@H]1CNCCO1)CC2 | -9% | 1.43
10 | COCC(=O)N[C@@H](C(N)=O)c1ccc(F)cc1 | -1% | 0.15
11 | CC(C)c1nnc(-c2ccc(=O)n(CC(=O)Nc3ccccc3)c2)o1 | -6% | 0.99
12 | C#Cc1cccc(NCc2cc(=O)n3cc(C)ccc3n2)c1 | -7% | 0.67
13 | COc1ccc(NC(=O)[C@@H]2COc3ccccc3O2)cc1S(=O)(=O)N1CCOCC1 | -16% | 1.82
14 | CCNS(=O)(=O)[C@H]1CCN(c2nnc(C3CCC3)n2CC)C1 | 4% | -0.52
15 | C=CCn1cc(CN[C@@H](C)c2nc(-c3ccccn3)no2)c(C)n1 | 2% | -0.3
16 | O=C(NCCc1ccsc1)c1nc[nH]c1C(F)(F)F | 31% | -3.45
17 | CC(=O)N(C)c1cccc(NC(=O)NC(C)(C)c2cccc(F)c2)c1 | -7% | 0.55
18 | CCC1(CC)CN(C(=O)c2cc(C(F)F)ncn2)CC[S@@+]1[O-] | 1% | -0.15
19 | CCC1(CC)CN(C(C)C(=O)Nc2nccs2)CC[S+]1[O-] (stereo not drawn) | -1% | 0.13
20 | Cc1cc(C(=O)N2CCC[C@H]2c2nnc3ccccn23)c(C)o1 | -3% | 0.57
21 | CCCc1nc(N2CCN(C(=O)c3ccc(Cl)c(Cl)c3)CC2)c2c(-c3ccc4ccccc4c3)noc2n1 | -17% | 1.72

Row | Structure (SMILES) | % Inhibition | Z score
22 | CN(Cc1nccs1)C(=O)[C@H]1CCCN(c2ncnc3sccc23)C1 | -14% | 1.88
23 | CC(C)[C@H](NC(=O)c1csc(-c2ccccn2)n1)C(=O)O | -14% | 1.43
24 | CCc1ccc(-c2cc(C)no2)cc1S(=O)(=O)N1CCCN(Cc2ccc(F)cc2)C1 | 4% | -0.5
25 | Cc1nc(C#N)c(C#N)n1Cc1nnnn1-c1ccccc1 | -11% | 1.02
26 | COc1cccc(F)c1-c1c(-c2ccccc2)ncn1Cc1ncc[nH]1 | 8% | -1.28
27 | O=C(Cc1c(Cl)cccc1Cl)N1CCC(OC2CNC2)CC1 | -6% | 0.81
28 | Cc1ccc(-c2cc(-c3ccc(C)cc3)n(-c3nc(-c4ccccc4)cs3)n2)cc1 | -8% | 1.52
29 | CN(C[C@]1(O)CCc2ccccc21)C(=O)c1ccc(S(C)(=O)=O)o1 | -5% | 0.69
30 | Cc1nc[nH]c1CN1C[C@H]2CC[C@@H](C1)N(C(=O)c1scc3c1CCCC3)C2 | 2% | -0.28
31 | COC[C@H](NCCc1cc(F)cc2c1OCOC2)C1CC1 | 63% | -8.98
32 | CC(=O)NC(C)(C)C[C@H](C)N1CC(c2ccncc2)C1 | -3% | 0.36
33 | Brc1cncc(-c2nccn2Cc2nccs2)c1 | -9% | 0.9
34 | Cc1nc(CN2CC[C@H](NC(=O)c3ccc[nH]3)[C@@H](O)C2)cs1 | -16% | 1.73
35 | C[C@@H](CNC(=O)C1CCCC1)NC(=O)C1CCCC1 | 8% | -1.04
36 | CCC(CC)N(Cc1ccc2c(c1)OCO2)C(=O)Cn1ccnc1 | -2% | 0.27
37 | COC(=O)c1ccc2oc(-c3ccc(-c4nc5cc(C(=O)OC)ccc5o4)c4ccccc34)nc2c1 | -7% | 0.89
38 | Cc1cccc(CNC(=O)c2ccc(C)nc2C2CCN(Cc3cccc(Cl)c3)CC2)c1 | 1% | -0.18
39 | C[C@H](NC(=O)[C@H]1CC[C@H](Cn2cnc3ccccc3c2=O)CC1)C(=O)O | -8% | 1.09
40 | Cc1cc(NC(=O)COc2ccccc2C(=O)N2CCCCC2)no1 | -4% | 0.9
41 | CC1CN(C(=O)C2Cc3ccccc3O2)CCN1 (stereo not drawn) | 0% | 0.03
42 | Cc1sc2ncnc(OCC(=O)N3CCCC3)c2c1C | -3% | 0.58

Row | Structure (SMILES) | % Inhibition | Z score
43 | COc1ccc(OC)c(C2CCCN2CC(O)c2ccccc2)c1 (stereo not drawn) | -7% | 1.16
44 | COCCN(CCC#N)C(=O)Nc1nc(C)cs1 | -2% | 0.29
45 | Cc1cc(C(=O)NCc2cc3n(n2)CCCC3)ns1 | -13% | 1.73
46 | O=C(Cn1cc(-c2ccccc2)ncc1=O)N1CCO[C@H](c2ccccc2)C1 | -10% | 1.28
47 | CC(C)c1scnc1C(=O)N(C)CCN1C[C@@H](C)O[C@@H](C)C1 | -5% | 0.72
48 | CCc1cccc(CC)c1NC(=O)c1ccc(N2C(=O)C3C4CC(c5ccccc5)C(C4)C3C2=O)cc1 (stereo not drawn) | 28% | -3.13
49 | CCc1ccc(C2CC(C(=O)NCc3cccnc3)CN(C(=O)c3ccoc3)C2)cc1 (stereo not drawn) | -7% | 1
50 | COc1ccc(-c2ccc(N3CCN(C(=O)CN(CCN4CCOCC4)C(=O)NC(C)C)CC3)nn2)cc1OC | -8% | 0.92
51 | O=S(=O)(Nc1ccc2[nH]nnc2c1)c1cc(F)ccc1Cl | 3% | -0.36
52 | COc1cc(-c2n[nH]cc2CN(CCN(C)C)C2CCCC2)cc(OC)c1OC | -4% | 0.6
53 | CCc1n[nH]c(C(=O)Nc2nc(CC3CC3)ns2)c1Br | 1% | -0.13
54 | Cc1cnc([C@H](C)NC(=O)N2CC(O)(c3cccc(Br)c3)C2)s1 | -8% | 0.84
55 | CCc1ccccc1NC(=O)Cn1c(=O)n(C(C)C)c(=O)c2sc(N3CCCCC3)nc21 | -50% | 4.41
56 | Cn1cccc(NC(=O)NC2CCC(C)(C)CC2)c1=O | -4% | 0.78
57 | O=C(NC[C@H](O)c1ccoc1)C(=O)NCC(F)(F)F | 4% | -0.57
58 | COc1cc(NC(=O)N2CCC[C@H]2c2cc(C)on2)cc(OC)c1OC | 9% | -1.7
59 | N#Cc1cccc(-c2nccn2C2CCCC2)c1 | 12% | -1.71
60 | CC(C)NC(=O)C1CCCC(NC(=O)CC=Cc2cccc(F)c2)C1 (stereo not drawn) | -5% | 0.54
61 | OCC1(c2ccccc2)CN(Cc2cccc(F)c2)C1 | -9% | 1.15
62 | COc1ccc(N2C(=O)CN(CCc3ccc(Cl)cc3)[C@H]3CS(=O)(=O)C[C@H]32)cc1 | -1% | 0.16
63 | NC(=O)c1cc(Cl)cc(Br)c1O | -18% | 2.77

Row | Structure (SMILES) | % Inhibition | Z score
64 | Cc1cc(C(F)(F)F)nc2nn3c(-c4cnn(C)c4C)ccnc3c12 | -25% | 3.62
65 | CNC(=O)c1cccc(N2CCC[C@H](NC(=O)C(C)C)C2)n1 | -2% | 0.22
66 | CCC[C@H](C)c1cc(NC(=O)CNC(=O)C(C)(C)C)[nH]n1 | 0% | 0.09
67 | CCn1nncc1CNC(=O)Nc1c(C)csc1Cl | -11% | 2.4
68 | O=C(CN1CCC(F)(F)[C@@H](CO)C1)N1CCC(Cc2ccccc2)CC1 | 0% | -0.02
69 | CCn1nc(C)c(-c2nc([C@H](O)c3ccccc3)nn2CCO)c1C | 10% | -1.84
70 | Cc1c(C)c(C(=O)NCc2ccco2)n(Cc2cccc(F)c2)c1C | -3% | 0.39
71 | CC(C)C(=O)N1C[C@H](O)C[C@H]1c1nnc2n1CCN(C(=O)c1cc(F)ccc1F)C2 | -5% | 0.54
72 | CC(C)CN1CCCCC1C(=O)NC1CCCc2[nH]c(=O)ccc21 (stereo not drawn) | -12% | 1.61
73 | CN(C)C(=O)c1ccc(CNC(=O)CCCn2cccn2)o1 | -5% | 0.65
74 | Cc1cccc(Nc2nc(-c3ccccc3)ncc2C(=O)N2CCC(C)CC2)c1 | 0% | -0.04
75 | CCC(C)C(NC(=O)NCc1nnc(N(C)C)[nH]1)C(F)(F)F (stereo not drawn) | 1% | -0.09
76 | Cc1nnsc1C(=O)N1C[C@H]2CC[C@@H](C1)N(Cc1c(C)noc1C)C2=O | 1% | -0.2
77 | O=C(c1ccccc1)c1n[nH]c(C(=O)c2ccc(Br)cc2)c1O | -7% | 0.81
78 | O=C(Cc1ccc(Cl)cc1)Nc1c[nH]c(=O)[nH]c1=O | -10% | 1.69
79 | O=C(CCC(=O)c1ccc2c(c1)OCCCO2)Nc1ccc(F)cc1 | -9% | 0.91
80 | CCc1cccc(C)c1N[C@@H](C)COC | -6% | 0.84
81 | CCc1ccc(C(=O)N2CCCCCCC2)s1 | -7% | 1.07
82 | CC(On1nnc2ccc(Cl)cc21)C(=O)N1c2ccccc2CC1C (stereo not drawn) | -1% | 0.13
83 | Cc1nc([C@H](C)NC(=O)Nc2cc(-c3nnco3)ccc2C)cs1 | -4% | 0.47
84 | COc1ccc(F)c(F)c1C(=O)N[C@H]1CCN(CC(=O)N(C)C)C[C@@H]1O | -6% | 1.13
